Results from PubChem BioAssay AID1508642 (National Center for Advancing Translational Sciences (NCATS), 2021).
About 200 (0.47%) of roughly 43,000 compounds were called active. The inconclusive results got no clear call from the source; some entries with a clear call stand among them for comparison. The call rests on the fitted dose curve; in most records, active means well fitted cell-killing curve with a large enough effect; inconclusive means small, poorly fitted or top-dose-only effect, or effect the other way; inactive means flat fitted curve, though single readings scatter. Where the call is inconclusive, the potency comes from a doubtful curve fit.

assay: Cell viability qHTS assay in S16 Pmp22-F2sN cells; conditions: S16 Pmp22-F2sN Schwann cells (luciferase reporters placed in the Pmp22 gene) viability, CellTiter-Glo, 24 h; series mostly up to 57.5 µM; further: nearly all actives have a fitted effect of over 65% in size
Procedure, shortened: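 Luminescence from CellTiter-Glo, read by CCD camera after a 15 min room-temperature incubation, served as the viability signal. Reporter Schwann cells (S16 Pmp22-F2sN) had been treated with pin-transferred compounds for 24 h at 37C.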
Potency means the concentration at half of the fitted maximal effect; tags describe the fitted curve by direction and shape.

SMILES | Potency
CCOc1ccc(-c2nonc2NC(=O)c2oc3ccc(F)cc3c2C)cc1 | inconclusive: 11.2 µM [cytotoxic, partial curve]
Cc1nn2c(=O)cc(CN(C)c3ccccc3)nc2s1 | inconclusive: 39.8 µM [rising, partial curve, poor fit]
CCOc1ccc(CCNc2ncnc3onc(-c4ccc(Cl)cc4)c23)cc1OCC | inconclusive: 39.8 µM [cytotoxic, single point]
COc1cccc(C2=C(C(C)=O)Sc3nncn3N2C(C)=O)c1 | inconclusive: 25.1 µM [cytotoxic, single point]
COc1ccc(NC(=O)C(c2ccc(C)cc2)N(C)C(=O)/C=C\c2ccc3c(c2)OCO3)cc1 (stereo not drawn) | inconclusive: 39.8 µM [cytotoxic, partial curve, poor fit]
CCN(CC)CCNC(=O)c1c(C)oc2ncn(C)c(=O)c12 | inactive
Cc1ccc(C(=O)CC2(O)C(=O)N(Cc3ccccc3F)c3ccccc32)cc1 (stereo not drawn) | inconclusive: 31.6 µM [cytotoxic, single point]
Cc1ccc(-n2c(SCc3cccc(F)c3)nc3[nH]ncc3c2=O)cc1C | inconclusive: 39.8 µM [cytotoxic, single point]
Cc1ccc2c(c1)-c1cc(C)nn1C(c1cc(Br)ccc1O)N2 (stereo not drawn) | inconclusive: 22.4 µM [cytotoxic, single point]
COc1cc(OC)c(OC)cc1/C=C/c1nc2cc3ccccc3cc2c(=O)n1-c1ccc(F)cc1F | inconclusive: 25.1 µM [cytotoxic, single point]
Cc1cc(NC(=O)CCS(=O)(=O)c2cc3c4c(c2)CCN4C(=O)CC3)ccc1Br | inconclusive: 10 µM [rising, partial curve]
CC(C)(C)c1ccc(C(=O)NCC(c2cccs2)S(=O)(=O)c2ccccc2)cc1 (stereo not drawn) | inconclusive: 39.8 µM [cytotoxic, single point]
COC(=O)c1ccc2c(=O)n(CCCCCC(=O)NCc3ccc(Cl)cc3)c(=O)[nH]c2c1 | inconclusive: 28.2 µM [cytotoxic, partial curve, poor fit]
Cc1ccc2ncc(C(=O)Nc3ccc(F)cc3F)c(=O)n2c1 | inactive
O=C(Nc1cc(Cl)cc(Cl)c1)c1ccc(F)c(S(=O)(=O)N2CCc3ccccc32)c1 | inconclusive: 39.8 µM [cytotoxic, single point]
Cc1cccc(C)c1OCCCn1c(CCNC(=O)C2CCCCC2)nc2ccccc21 | inactive
Cc1c(C(=O)Nc2cccc(Cl)c2)sc2nc3n(c(=O)c12)N=C(c1cccc(Br)c1)CS3 | inconclusive: 31.6 µM [cytotoxic, single point]
O=C(CCS(=O)(=O)c1ccccc1)N(Cc1cccnc1)c1nc2ccc(Cl)cc2s1 | inconclusive: 7.08 µM [cytotoxic, single point]
CC(NC(=O)c1ccc2c(c1)CCN2S(=O)(=O)c1ccccc1)c1ccccc1 (stereo not drawn) | inconclusive: 28.2 µM [cytotoxic, single point]

SMILES | Potency
O=C(c1ccc2c(c1)N(Cc1ccc(F)cc1)C(=O)c1ccccc1S2(=O)=O)N1CCCC1 | inconclusive: 0.631 µM [rising, full curve, poor fit]
CCCCCn1c(CCNC(=O)c2ccc(F)cc2)nc2ccccc21 | inactive
O=C(NCCCc1nc2ccccc2n1Cc1ccc(Cl)cc1)C1CCCCC1 | inactive
COc1cc(NC(=O)N2CCC(CN3CCOCC3)CC2)cc(OC)c1OC | inactive
COc1ccc(S(=O)(=O)N2CCCN(CC(=O)Nc3ccc(OC)cc3OC)CC2)cc1 | inactive
CCOC(=O)c1ccc(N2C(=O)c3n[nH]c(-c4cccs4)c3C2c2ccc(OCC)cc2)cc1 (stereo not drawn) | inconclusive: 14.1 µM [cytotoxic, partial curve, poor fit]
COc1ccc(CC(=O)Nc2ccc3nc(Nc4ccc(OC)cc4)cc(C)c3c2)cc1 | inconclusive: 17.8 µM [rising, partial curve, poor fit]
COc1cccc(-n2c(=O)c3c(C)c(C)sc3n(CC(=O)NCCc3ccc(OC)c(OC)c3)c2=O)c1 | inconclusive: 0.891 µM [cytotoxic, full curve, poor fit]
Cc1ccc(Cn2c(C(=O)O)c(CNCc3ccc(OC(C)C)cc3)c3ccc(C)cc32)cc1 | inconclusive: 39.8 µM [cytotoxic, single point]
CCOC(=O)c1c(NC(=O)C(C)Sc2cn(CCNC(=O)c3c(F)cccc3F)c3ccccc23)sc2c1CCC2 (stereo not drawn) | inconclusive: 0.316 µM [cytotoxic, full curve, poor fit]
Cc1ccc(C(C)C)c(OCCSc2nc(-c3ccccc3F)nc3cc(=O)[nH]n23)c1 | inconclusive: 2.24 µM [cytotoxic, full curve, poor fit]
Cc1c2cnn(CC(=O)NCc3ccc(F)cc3)c(=O)c2c(C)n1Cc1cccc(Cl)c1 | inconclusive: 39.8 µM [cytotoxic, single point]
COc1ccc(S(=O)(=O)NCC(c2ccco2)S(=O)(=O)c2ccc(C)cc2)cc1F (stereo not drawn) | inconclusive: 39.8 µM [cytotoxic, single point]
COc1ccc(CNS(=O)(=O)c2ccc(N3CCCCS3(=O)=O)cc2)cc1 | inconclusive: 35.5 µM [cytotoxic, partial curve]
CC(C)(C)OC(=O)N1CCC(c2c(C(=O)NCc3cccc(Cl)c3)cnn2-c2ccc(F)cc2)CC1 | inconclusive: 22.4 µM [cytotoxic, partial curve]
CCOc1ccc(CN2CCc3nc(N4CCN(c5ccccc5OC)CC4)ncc3C2)cc1OC | inactive
CCOC(=O)c1cc(-c2ccc(OC)cc2)n(CCC(=O)Nc2ccccc2OC)c1C | inconclusive: 28.2 µM [cytotoxic, partial curve, poor fit]
CCOc1ccc(NCc2cccn2-c2nnc(N3CCC(C(=O)NCC(C)c4ccccc4)CC3)s2)cc1 (stereo not drawn) | inconclusive: 20 µM [cytotoxic, partial curve, poor fit]
CC1=C(c2ccc(Cl)cc2)S(=O)(=O)NC1=NCCCN1CCN(c2cc(C)ccc2C)CC1 | inconclusive: 39.8 µM [cytotoxic, single point]
